The campaign covered roughly 39,000 compounds. About 220 (0.56%) showed activity. Some of the results follow.
The compounds below were run on Escherichia coli K-12 BW25113 (assay: relative growth (OD600 normalised to plate interquartile mean) (fraction); higher = less growth inhibition, active = 0.2 or less). Settings: 50 µM; LB; incubation time: overnight (16-24 h).
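Further: static incubation at 37 °C against the wild-type strain, values averaged over two biological replicates.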

SMILES | relative growth
C[C@H](CO)N1C[C@H](C)[C@@H](CN(C)C(=O)Nc2ccc3c(c2)OCO3)Oc2c(NC(=O)C3CC3)cccc2C1=O | inactive: 0.995
C[C@@H]1CN([C@@H](C)CO)C(=O)c2cccc(NC(=O)Nc3cccc4ccccc34)c2O[C@@H]1CN(C)Cc1ccc(Cl)c(Cl)c1 | inactive: 1.01
Cc1cc(Cl)cc2sc(N(Cc3ccccn3)C(=O)c3ccc(S(=O)(=O)N4CCCC4)cc3)nc12 | inactive: 1.04
C[C@H](CO)N1C[C@H](C)[C@H](CN(C)C(=O)NC2CCCCC2)Oc2ccc(NS(C)(=O)=O)cc2C1=O | inactive: 0.995
O=S(=O)(c1ccc(-n2cnnn2)cc1)N1CCNCC1 | inactive: 0.947
COc1ccc(S(=O)(=O)N[C@@H]2CC[C@H](CC(=O)N3CCC(Cc4ccccc4)CC3)O[C@H]2CO)cc1 | inactive: 0.994
C[C@@H]1CCCCO[C@H](CN(C)C(=O)Nc2cccc3ccccc23)[C@@H](C)CN([C@H](C)CO)C(=O)c2cc(N(C)C)ccc2O1 | inactive: 1.02
C[C@@H]1OC2=C(Cl)C(=O)N3CCC[C@@H]3C[C@]21O | inactive: 0.991
COc1ccc(S(=O)(=O)N(C)C[C@@H]2OCCCC[C@@H](C)Oc3ccc(NC(=O)Nc4c(C)noc4C)cc3C(=O)N([C@@H](C)CO)C[C@H]2C)cc1 | inactive: 0.96
O=NN(CCCl)C(=O)NCCCl | inactive: 1.12
COc1ccc(S(=O)(=O)N(C)C[C@H]2OCCCC[C@@H](C)Oc3ccc(NC(=O)Nc4ccc(F)cc4)cc3C(=O)N([C@@H](C)CO)C[C@@H]2C)cc1 | inactive: 1.06
NCC[C@@H]1CC[C@H](NC(=O)C2CCCC2)[C@H](CO)O1 | inactive: 0.969
COc1ccc(NC(=O)N2C[C@@H](O)COC[C@H]3O[C@H](CC(=O)NC4Cc5ccccc5C4)CC[C@@H]32)cc1 | inactive: 0.981
C[C@H]1CN([C@@H](C)CO)C(=O)c2cc(NS(=O)(=O)c3ccc(Cl)cc3)ccc2O[C@H]1CN(C)S(C)(=O)=O | inactive: 0.978
CCOC(=O)c1ncn2c1CN(C)C(=O)c1cc(F)ccc1-2 | inactive: 1.03
Cn1cnc(S(=O)(=O)N2C[C@H](O)COC[C@H]3O[C@H](CC(=O)NC4CCC4)CC[C@@H]32)c1 | inactive: 0.99
Cn1nccc1C(=O)NCCN | inactive: 1.02
CO[C@@H]1CN(C)C(=O)c2ccc(NS(C)(=O)=O)cc2OC[C@H](C)N(C(=O)CN(C)C)C[C@H]1C | inactive: 0.996
COCC(=O)N1C[C@@H](C)[C@H](OC)CN(C)C(=O)c2ccc(NC(=O)Nc3cccc(F)c3)cc2OC[C@H]1C | inactive: 0.973
COc1cccc(NC(=O)C[C@H]2CC[C@@H]3[C@@H](COc4ccc(NC(=O)C5CCOCC5)cc4C(=O)N3C)O2)c1 | inactive: 0.988
C[C@@H]1CN([C@@H](C)CO)C(=O)c2cc(C#CCN(C)C)cnc2O[C@@H]1CN(C)S(=O)(=O)c1ccccc1 | inactive: 0.998
CC(C)Cc1ccc([C@@H](C)c2nc(-c3cccs3)no2)cc1 | inactive: 1

SMILES | relative growth
CC(C)NC(=O)Nc1ccc2c(c1)CC(=O)N([C@@H](C)CO)C[C@@H](C)[C@@H](CN(C)S(=O)(=O)c1cn(C)cn1)O2 | inactive: 1.01
COCC(=O)N1C[C@@H](C)[C@H](OC)CN(C)C(=O)c2ccc(NC(=O)c3cc(C)on3)cc2OC[C@H]1C | inactive: 0.988
CC(C)CC#Cc1ccc2c(c1)O[C@@H](CN(C)C(=O)Cc1ccncc1)[C@@H](C)CN([C@H](C)CO)S2(=O)=O | inactive: 1.03
Cc1c(C)c2c(c(C)c1OC(=O)CCC(=O)O)CC[C@@](C)(CCC[C@H](C)CCC[C@H](C)CCCC(C)C)O2 | inactive: 1.04
COc1ccc2c3c([nH]c2c1)[C@@H](CO)N(C[C@]13CN(C1)S(=O)(=O)C)C(=O)c1cnccn1 | inactive: 1
O=C(O)c1ccno1 | inactive: 0.986
Cn1c(=O)c2c(nc(NCCN)n2Cc2ccc(Cl)cc2)n(C)c1=O | inactive: 1.01
C[C@@H]1CN([C@@H](C)CO)C(=O)Cc2cc(NC(=O)Nc3cccc4ccccc34)ccc2O[C@@H]1CN(C)Cc1ccccc1 | inactive: 1.02
C[C@@H]1CN([C@H](C)CO)C(=O)c2cccc(NS(=O)(=O)c3ccccc3)c2O[C@H]1CN(C)S(=O)(=O)c1ccc(F)cc1 | inactive: 0.978
CC(C)NC(=O)Nc1ccc2c(c1)CC(=O)N([C@H](C)CO)C[C@@H](C)[C@H](CN(C)Cc1ccc(C(=O)O)cc1)O2 | inactive: 0.998
CCCNC(=O)N1C[C@]2(CCN(CC2)S(=O)(=O)c2ccc(cc2)OC)c2c(n(c3cc(ccc23)OC)C)[C@H]1CO | inactive: 1.02
C[C@H]1CC/C=C\[C@H]2O[C@@]34C=CCN(CCN5CCOCC5)C(=O)[C@H]3N(CCO)C(=O)[C@@H]4[C@@H]2C(=O)O1 | inactive: 0.966
CC(C)NC(=O)N(C)C[C@H]1Oc2cc(-c3ccccc3F)ccc2S(=O)(=O)N([C@H](C)CO)C[C@@H]1C | inactive: 0.998
COc1c(C)cc(-c2cc3c(c(-c4ccccc4)n2)[Si](C(C)C)(C(C)C)O[C@H]3c2ccccc2)cc1C | inactive: 1.01
COCC#Cc1cnc2c(c1)C(=O)N([C@H](C)CO)C[C@@H](C)[C@@H](CN(C)C(=O)Nc1ccc(OC)cc1)O2 | inactive: 0.977
O=C(C[C@@H]1C=C[C@@H](NC(=O)Nc2cc(F)ccc2F)[C@H](CO)O1)NCCCN1CCOCC1 | inactive: 1.02
C[C@@H]1CN([C@@H](C)CO)C(=O)c2cc(NC(=O)Cc3cn(C)c4ccccc34)ccc2O[C@H]1CN(C)C(=O)Nc1ccc(C(F)(F)F)cc1 | inactive: 0.994
COc1cccc(NC(=O)N[C@H]2CC[C@H](CC(=O)N3CCOCC3)O[C@@H]2CO)c1 | inactive: 1.01
Cc1ccc(-c2ccc3c(c2)O[C@@H](CN(C)C(=O)Nc2ccc(C(F)(F)F)cc2)[C@@H](C)CN([C@@H](C)CO)S3(=O)=O)cc1 | inactive: 0.852
COc1ccccc1C#Cc1cnc2c(c1)C(=O)N([C@H](C)CO)C[C@H](C)[C@H](CN(C)S(=O)(=O)c1cn(C)cn1)O2 | inactive: 0.997
O=C(C[C@H]1CC[C@@H]2[C@H](COC[C@H](O)CN2S(=O)(=O)c2cccc(Cl)c2)O1)NCc1ccc2c(c1)OCO2 | inactive: 1.01
C[C@H](CO)N1C[C@H](C)[C@H](CN(C)C(=O)Nc2cccc3ccccc23)OCCCC[C@H](C)Oc2ccc(NC(=O)NC3CCCCC3)cc2C1=O | inactive: 1.02

SMILES | relative growth
CN(C)CCOc1ccc(C(=C(CCCl)c2ccccc2)c2ccccc2)cc1.O=C(O)CC(O)(CC(=O)O)C(=O)O | inactive: 0.722
C[C@@H]1CN([C@H](C)CO)S(=O)(=O)c2ccc(C#C[C@@H](C)O)cc2O[C@@H]1CN(C)C(=O)c1ccccc1 | inactive: 1.01
Cc1ccc(S(=O)(=O)Nc2ccc3c(c2)C(=O)N([C@H](C)CO)C[C@H](C)[C@@H](CN(C)C(=O)c2ccccc2)OCCCC[C@H](C)O3)cc1 | inactive: 0.984
C[C@@H]1CN([C@H](C)CO)C(=O)c2cc(NC(=O)C3CC3)ccc2O[C@@H]1CN(C)Cc1ccc(Oc2ccccc2)cc1 | inactive: 0.998
CC(=O)OCC(=O)C1(O)CCC2C3CCC4=CC(=O)CCC4(C)C3C(O)CC21C (centres undefined) | inactive: 1.01
C[C@@H]1CCCCO[C@@H](CN(C)CC2CC2)[C@H](C)CN([C@H](C)CO)C(=O)c2cc(NC(=O)c3ccccc3)ccc2O1 | inactive: 1
C[C@@H]1CN([C@H](C)CO)C(=O)Cc2cc(NC(=O)Cn3cnnn3)ccc2O[C@H]1CN(C)Cc1ccc(C(F)(F)F)cc1 | inactive: 0.891
Cc1cc(C(=O)Nc2cccc3c2O[C@H](CN(C)S(=O)(=O)c2ccc(Cl)cc2)[C@H](C)CN([C@@H](C)CO)C3=O)n(C)n1 | inactive: 0.996
C[C@H]1CCCCO[C@H](CN(C)C(=O)Nc2ccccc2)[C@@H](C)CN([C@@H](C)CO)C(=O)c2cc(NC(=O)Nc3cccc4ccccc34)ccc2O1 | inactive: 1.03
O=C(C[C@@H]1CC[C@@H]2[C@H](COC[C@H](O)CN2S(=O)(=O)c2ccc(F)cc2)O1)NCc1ccncn1 | inactive: 0.961
C[C@@H]1CCCCO[C@H](CN(C)C(=O)C2CCCCC2)[C@H](C)CN([C@H](C)CO)C(=O)c2cc(NS(=O)(=O)c3ccc(F)cc3)ccc2O1 | inactive: 1.03
COc1ccccc1Nc1nc(-c2ccc(Cl)cc2)cs1 | inactive: 1.03
C[C@@H]1CN([C@H](C)CO)C(=O)c2cc(NC(=O)Nc3ccc(C(F)(F)F)cc3)ccc2O[C@@H](C)CCCCO[C@H]1CN(C)Cc1ccc(C(=O)O)cc1 | inactive: 0.89
CNC(=O)C[C@H]1Nc2ccccc2NC1=O | inactive: 1.02
COCC(=O)N1C[C@]2(CN(C2)C(=O)CN2CCOCC2)c2c([nH]c3cc(ccc23)OC)[C@H]1CO | inactive: 0.977
C/C=C/c1cccc(-c2nc(C(=O)NCc3ccccc3)cc3c2[C@@H](CCO)N([S@](=O)C(C)(C)C)C3)c1 | inactive: 0.989
Cc1cc(O)n(C[C@@H](C)O)c(=O)c1C#N | inactive: 1.02
CC(C)(C)OC(=O)N1CC(O)C1 | inactive: 1.01
C[C@@H]1CN([C@H](C)CO)C(=O)Cc2cc(NC(=O)Nc3ccc(C(F)(F)F)cc3)ccc2O[C@@H]1CN(C)C(=O)Nc1ccccc1 | inactive: 1.01
CC(C)NC(=O)Nc1ccc2c(c1)C(=O)N([C@@H](C)CO)C[C@@H](C)[C@@H](CN(C)C(=O)Nc1ccc(C(F)(F)F)cc1)OCCCC[C@@H](C)O2 | inactive: 1.02
